Data taken from PubChem BioAssay AID624296 (National Center for Advancing Translational Sciences (NCATS), 2012).
About 9,900 (2.8%) of roughly 350,000 compounds were called active. Inconclusive means that the source gave no clear call. Such entries were picked first, then a sample of the others. Calls follow the shape of the dose curve; as a rule, active = well fitted activation curve with a large enough effect; inconclusive = small, poorly fitted or top-dose-only effect; inactive = no such curve, though single readings can be large or run the other way. Potencies of inconclusive entries are left out as doubtful fits.

experiment: A quantitative high throughput screen for small molecules that induce DNA re-replication in MCF 10a normal breast cells.; also: nearly all actives have a fitted effect of over 50% in size; settings: MCF 10A DNA re-replication, Hoechst nuclear intensity, 48 h; series mostly up to 46.1 µM
Potency is read from the fitted curve at half-maximal effect; tags tell the direction and shape of the fitted curve.

Row | Structure (SMILES) | Potency
1 | CCOc1ccc(S(=O)(=O)N(CC)CC(=O)NCc2cccnc2)cc1C | inconclusive [activator, single point]
2 | Cn1c(SCC(=O)N2CCN(c3ccccc3)CC2)nnc1-c1ccccc1 | inactive
3 | CN(C)S(=O)(=O)c1ccc(C(=O)Nc2nnc(-c3ccco3)o2)cc1 | inconclusive [activator, partial curve, poor fit]
4 | COc1ccc(C2(O)C(=O)Nc3ccc(C)cc32)cc1 (stereo unspecified) | inactive
5 | COc1cccc(OC)c1C(=O)Nc1c(C)n(C)n(-c2ccccc2)c1=O | inconclusive [activator, full curve, poor fit]
6 | O=C(NNC(=O)C1CCN(Cc2ccc(F)cc2Cl)CC1)Nc1ccc([N+](=O)[O-])cc1 | inconclusive [activator, single point]
7 | CC(C)(C)c1ccc(N=C2SCC(=O)N2Cc2cccs2)cc1 | active: 23.1 µM
8 | NNC(=O)c1oc2ccccc2c1-n1cccc1 | inconclusive [activator, single point]
9 | O=C1C=C(Nc2ccc(F)cc2)c2ccccc2C1=O | inconclusive [activator, single point]
10 | COc1ccc(C(N)c2nccc3cc(OC)c(OC)cc23)cc1OC (stereo unspecified) | inactive
11 | CCN(CC)C(=O)CSc1nc2cc(OC)c(OC)cc2c(=O)n1Cc1ccc(Cl)cc1 | inconclusive [activator, partial curve, poor fit]
12 | CC(C)c1nc2sc3c(SCC(=O)NCc4ccco4)ncnc3c2c2c1CCC2 | active: 14.6 µM
13 | CCOC(=O)Cn1c(=NC(=O)c2ccc([N+](=O)[O-])s2)sc2ccccc21 | active: 3.66 µM
14 | Cc1ccc(S(=O)(=O)N2CCOCC2)cc1C(=O)OC(C)C(=O)c1ccccc1 (stereo unspecified) | inactive
15 | O=S(=O)(/C=C/C=C/S(=O)(=O)c1ccccc1)c1ccccc1 | inconclusive [activator, full curve]
16 | CCOC(=O)CN1C(=O)N[C@@H](c2ccccc2)[C@H](C(C)=O)[C@H]1C | inconclusive [activator, full curve]
17 | C=CCn1c(SCC(=O)Nc2ccccc2OC)nc2c([nH]c3ccccc32)c1=O | inconclusive [activator, single point]
18 | Cn1cc([N+](=O)[O-])c(C(=O)NCc2ccccc2)n1 | inactive
19 | Cc1ccc(C2CC(=O)c3cnc(N4CCc5ccccc5C4)nc3C2)cc1 (stereo unspecified) | inactive
20 | COc1ccc(OCc2nnc(SCC(=O)Nc3cccc(Cl)c3)o2)cc1 | inconclusive [activator, partial curve, poor fit]
21 | CN1CCCC2(CCCN(Cc3nc(Cc4cccc(C(F)(F)F)c4)no3)C2)C1 (stereo unspecified) | inconclusive [activator, full curve]
22 | O=C(c1cccc(Cl)c1)N1CCCc2ccccc21 | inactive

Row | Structure (SMILES) | Potency
23 | COc1ccc(NC2CCCN(C(=O)CCCn3cncn3)C2)cc1OC (stereo unspecified) | inconclusive [activator, single point]
24 | Cc1cc(C)n2c(SCC(=O)NC3CCCC(C)C3C)nnc2n1 (stereo unspecified) | inconclusive [activator, single point]
25 | COc1ccccc1N1CCN(CC(=O)c2ccc3ccn(C(C)=O)c3c2)CC1 | inconclusive [activator, partial curve, poor fit]
26 | O=C(CSc1nc2ccc(Cl)cc2[nH]1)Nc1ccc2c(c1)CCC2 | inconclusive [activator, single point]
27 | ClCC1CN(Cc2ccccc2Cl)CCO1 (stereo unspecified) | inconclusive [activator, single point]
28 | Nc1c(C(=O)NCc2ccco2)c2nc3ccccc3nc2n1CCc1ccc(F)cc1 | inconclusive [activator, partial curve, poor fit]
29 | Cc1ccc(C)c(OCC(=O)N(C)CC(=O)Nc2ccc(Cl)c(C(F)(F)F)c2)c1 | inconclusive [activator, partial curve, poor fit]
30 | Cn1cc(CN2CCN(Cc3ccccc3)CC2)c(-c2cccc(Cl)c2)n1 | inconclusive [activator, partial curve, poor fit]
31 | Cc1ccc(C(=O)/C=C/Nc2ccc(S(=O)(=O)Nc3onc(C)c3C)cc2)cc1 | inconclusive [activator, single point]
32 | O=c1n(Cc2ccc(Cl)cc2)c2sc3c(c2c2ncnn12)CCCC3 | inconclusive [activator, single point]
33 | COc1ccc(-c2noc(CN(C)C(=O)c3ccoc3C)n2)cc1 | inconclusive [activator, single point]
34 | CCOc1ccc(/C=C2/Sc3ccc(C(=O)N4CCOCC4)cc3N(C)C2=O)cc1OC | inconclusive [activator, partial curve, poor fit]
35 | COc1ccc(N2C(=O)[C@@H]3[C@H](C2=O)[C@H]2C=CC=NN2[C@@H]3C(=O)Nc2ccc(Cl)cc2)cc1 | inactive
36 | CC12COC3(C(=O)Nc4ccc(Cl)cc4)CC1CCC32C (stereo unspecified) | inconclusive [activator, single point]
37 | CCN1C(=O)[C@H]2[C@@H](c3ccc(-c4ccc(OC)cc4)cc3)N[C@@](C)(C(=O)OC)[C@H]2C1=O | inactive
38 | C[C@H](CO)N1C[C@H](C)[C@@H](CN(C)C(=O)Nc2ccc(C(F)(F)F)cc2)Oc2c(NS(=O)(=O)c3cccs3)cccc2C1=O | inactive
39 | CNC(=O)/C(C#N)=C/c1c(N(Cc2ccccc2)Cc2ccccc2)nc2c(C)cccn2c1=O | inconclusive [activator, single point]
40 | COc1ccc(CN2CCC(C)CC2)cc1OCc1ccccc1 | inconclusive [activator, partial curve, poor fit]
41 | Cc1cccc(N=C2NC(=O)/C(=C/C=C/c3ccco3)S2)c1 | inconclusive [activator, partial curve]
42 | O=S(=O)(c1ccc(Br)s1)N1CCN(CCOc2ccccc2)CC1 | inconclusive [activator, single point]
43 | CC(C)(C)OC(=O)NCc1ccc(NC(=O)c2nc[nH]c2C(=O)NCCNC(=O)c2[nH]cnc2C(=O)Nc2ccc(CNC(=O)OC(C)(C)C)cc2)cc1 | active: 23.1 µM
44 | O=C(NNc1ccccn1)C(=O)NNS(=O)(=O)c1ccc(Cl)cc1 | inconclusive [activator, single point]

Row | Structure (SMILES) | Potency
45 | Cc1ccc([N+](=O)[O-])cc1NC(=O)C[n+]1ccccc1 | inconclusive [activator, full curve, poor fit]
46 | Cc1cc(/C=N\NC(=O)c2cccs2)c(C)n1-c1ccc2ncccc2c1 | inconclusive [activator, full curve, poor fit]
47 | Cc1ccc(NC(=S)NNC(=O)CSc2nc3ccccc3c(=O)n2-c2ccc(C)cc2)cc1 | inconclusive [activator, single point]
48 | CC1=NN(C(=O)c2ccccc2Br)C(O)(c2ccc(Cl)cc2)C1 (stereo unspecified) | inconclusive [activator, single point]
49 | CN1CCC(OC(=O)COc2ccc(C(C)(C)C)cc2)CC1 | inactive
50 | CCCn1nc(NC(=O)c2ccco2)c2cc3ccccc3nc21 | active: 16.4 µM
51 | CC(=O)c1ccc(OCc2cc(C(=O)N3CCCCCCC3)no2)cc1 | inconclusive [activator, partial curve]
52 | Cn1c(=O)c2c(ncn2CCc2ccccc2)n(C)c1=O | inactive
53 | COc1ccc(-n2c(C(C)n3nc(C)c([N+](=O)[O-])c3C)n[nH]c2=S)cc1 (stereo unspecified) | inactive
54 | COc1ccccc1-n1cnc2cc(NCc3cccs3)ccc21 | active: 1.46 µM
55 | Cc1c(NC(=O)CN2CC(C)OC(C)C2)c(=O)n(-c2ccccc2)n1C (stereo unspecified) | inconclusive [activator, single point]
56 | Cc1cccc(Oc2coc3cc(OC(=O)c4cncc(Br)c4)ccc3c2=O)c1 | inconclusive [activator, partial curve, poor fit]
57 | CCOC(=O)c1c(NC(=O)CSc2nnc(C)s2)sc2c1CCC(CC)C2 (stereo unspecified) | inactive
58 | Cc1ccc(S(=O)(=O)NC2c3cccc4cccc(c34)C2Sc2nncn2C)cc1 (stereo unspecified) | inconclusive [activator, single point]
59 | O=C(CN(c1cccc([N+](=O)[O-])c1)S(=O)(=O)c1ccccc1)NCc1cccnc1 | inactive
60 | CCOc1ccc(/C=C/C(=O)c2c(O)c3ccccc3oc2=O)cc1 | inconclusive [activator, partial curve, poor fit]
61 | COc1ccccc1Nc1nn2c(=O)c3ccc(C(=O)N4CCCC(C)C4)cc3nc2s1 (stereo unspecified) | inconclusive [activator, single point]
62 | O=C(c1ccc(S(=O)(=O)N2CCCCCC2)cc1)N1CCC(CN2C(=O)c3cccc4cccc(c34)C2=O)CC1 | inactive
63 | Cc1ccc(Cl)cc1N1CCN(S(=O)(=O)N2CCCCC2)CC1 | inconclusive [activator, single point]
64 | O=c1[nH]c(Nc2ccccc2Cl)cc2ccccc12 | inconclusive [activator, partial curve, poor fit]
65 | Cc1cccc(NC(=S)NNC(=O)c2ccc(O)cc2O)c1C | inactive
66 | CC[C@]12c3[nH]c4cc(CCC(=O)N(C)C)ccc4c3CCN1C(=O)[C@@H](CC(=O)NC/C=C(\C)CCC=C(C)C)C[C@@H]2C(=O)N1CCN(C(=O)c2ccco2)CC1 | inconclusive [activator, partial curve]
